Results: the supplement of paper PMC4967469

Experiments:
Assay in all cases: Viability of human cancer cell lines after 72 h of drug (GDSC screen)
Masitinib = compound: Cc1ccc(NC(=O)c2ccc(CN3CCN(C)CC3)cc2)cc1Nc1nc(-c2cccnc2)cs1 [Masitinib]; conditions: top dose 20 µM
Description: (§1)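 Human cancer cell lines in 384-well plates, medium with 10% serum, drug for 72 h over a 256-fold dose range (nine 2-fold or five 4-fold steps up to the top dose). Adherent lines were fixed and stained with the nucleic acid dye Syto60, suspension lines read with resazurin; signal relative to control wells, capped at 0 and 100%. One two-parameter sigmoid per drug and line, fitted in a mixed model over all curves with the slope shared within a line.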

LAQ824 = compound: O=C(/C=C/c1ccc(CN(CCO)CCc2c[nH]c3ccccc23)cc1)NO [LAQ824]; conditions: top dose 1.024 µM; top dose inferred
Description: as §1

HG-5-88-01 = compound: COc1cc(N2CCC(C(N)=O)CC2)ccc1Nc1nc(N)c(Cl)c(Nc2ccccc2S(=O)(=O)C(C)C)n1 [HG-5-88-01]; conditions: top dose 10 µM; top dose inferred
Description: as §1

Elesclomol = compound: CN(NC(=O)CC(=O)NN(C)C(=S)c1ccccc1)C(=S)c1ccccc1 [Elesclomol]; conditions: top dose 0.2 µM; top dose inferred
Description: as §1

VNLG/124 = compound: CCCC(=O)OCc1ccc(OC(=O)/C=C(C)/C=C/C=C(C)/C=C/C2=C(C)CCCC2(C)C)cc1 [VNLG/124]; conditions: top dose 5.12 µM; top dose inferred
Description: as §1

Bleomycin = compound: Cc1c(N)nc([C@H](CC(N)=O)NC[C@H](N)C(N)=O)nc1C(=O)N[C@H](C(=O)N[C@H](C)[C@@H](O)[C@H](C)C(=O)N[C@H](C(=O)NCCc1nc(-c2nc(C(=O)NCCC[S+](C)C)cs2)cs1)[C@@H](C)O)[C@@H](OC1OC(CO)C(O)C(O)C1OC1OC(CO)C(O)C(OC(N)=O)C1O)c1cnc[nH]1 [Bleomycin]
Description: as §1

OSI-930 = compound: O=C(Nc1ccc(OC(F)(F)F)cc1)c1sccc1NCc1ccnc2ccccc12 [OSI-930]; conditions: top dose 10.24 µM
Description: as §1

Tamoxifen = compound: CC/C(=C(\c1ccccc1)c1ccc(OCCN(C)C)cc1)c1ccccc1 [Tamoxifen]; conditions: top dose 5 µM
Description: as §1

NSC-87877 = compound: O=S(=O)(O)c1ccc2cc(N=Nc3cc(S(=O)(=O)O)c4cccnc4c3O)ccc2c1 [NSC-87877]; conditions: top dose 16 µM; top dose inferred
Description: as §1

BX-912 = compound: O=C(Nc1cccc(Nc2ncc(Br)c(NCCc3cnc[nH]3)n2)c1)N1CCCC1 [BX-912]; conditions: top dose 10.24 µM; top dose inferred
Description: as §1

[1] = top dose 50 µM, screen: GDSC drug entry 1378, top dose inferred
[2] = top dose 64 µM, screen: GDSC drug entry 190

Cell Line | AUC (Masitinib) | pIC50 (Masitinib) | AUC (LAQ824) | pIC50 (LAQ824) | AUC (HG-5-88-01) | pIC50 (HG-5-88-01) | AUC (Elesclomol) | pIC50 (Elesclomol) | AUC (VNLG/124) | pIC50 (VNLG/124) | AUC (Bleomycin; [1]) | pIC50 (Bleomycin; [1]) | AUC (Bleomycin; [2]) | pIC50 (Bleomycin; [2]) | AUC (OSI-930) | pIC50 (OSI-930) | AUC (Tamoxifen) | pIC50 (Tamoxifen) | AUC (NSC-87877) | pIC50 (NSC-87877) | AUC (BX-912) | pIC50 (BX-912)
HCC-56 (large intestine, adherent) | 0.836 | 4.86 | 0.421 | 7.41 | 0.894 | < 5.00 | 0.787 | 7.05 | 0.985 | < 5.29 | 0.862 | 4.35 | 0.038 | > 6.60 | 0.926 | < 4.99 | 0.979 | < 5.30 | 0.947 | < 4.80 | 0.92 | < 4.99
HCC-78 (lung adenocarcinoma, adherent) | 0.878 | < 4.70 | 0.522 | 7.13 | 0.654 | 5.74 | 0.977 | < 6.70 | 0.983 | < 5.29 | 0.395 | 5.82 | 0.442 | 5.57 | 0.93 | < 4.99 | 0.919 | < 5.30 | 0.983 | < 4.80 | 0.932 | < 4.99
HGC-27 (stomach, adherent) | 0.878 | 4.82 | 0.262 | 7.82 | 0.871 | 5.15 | 0.417 | 8.11 | 0.983 | < 5.29 | 0.356 | 5.87 | 0.318 | 5.87 | 0.97 | < 4.99 | 0.934 | < 5.30 | 0.979 | < 4.80 | 0.762 | 5.50
HSC-2 (head and neck, adherent) | 0.973 | < 4.70 | 0.444 | 7.34 | 0.937 | < 5.00 | 0.821 | 6.98 | 0.989 | < 5.29 | 0.159 | 6.50 | 0.439 | 5.56 | 0.984 | < 4.99 | 0.984 | < 5.30 | 0.957 | < 4.80 | 0.971 | < 4.99
HSC-4 (head and neck, adherent) | 0.969 | < 4.70 | 0.632 | 6.78 | 0.788 | 5.22 | 0.371 | 8.31 | 0.972 | < 5.29 | – | – | 0.921 | < 4.19 | 0.974 | < 4.99 | 0.935 | < 5.30 | 0.977 | < 4.80 | 0.97 | < 4.99
HSC-39 (stomach, suspension) | 0.83 | 4.99 | 0.693 | 6.69 | 0.943 | < 5.00 | 0.904 | < 6.70 | 0.991 | < 5.29 | 0.943 | < 4.30 | 0.815 | 4.53 | 0.978 | < 4.99 | 0.958 | < 5.30 | 0.969 | < 4.80 | 0.678 | 5.73

pIC50: −log10 of the molar value. Lines with a small IC50 respond at low doses; fits outside the tested doses are given as limits. The AUC spans the tested range (256-fold, ending at the top dose) of the same fit; values near 1 show little effect. For some of these results: Where the top dose is marked as inferred, it is not printed in the source and was worked back from the curve model. For some of these results: An entry number marks a drug with two screens in the source, which often give different values.
